Results as given in patent publication US20090010942A1, “NOVEL PRIMATE CHITINASES AND USES THEREFOR” (WYETH, priority 2007, published 2009).

Test: chitinase enzyme assay in conditioned media of transfected COS cells
Type: biochemical
Method: Enzymatic activity assays were performed using cloned mNC, engineered hNC (stop codon substituted to allow for translation of full protein), engineered mut-hNC (truncated), and cloned hAMCase in COS cells. The full length mNC construct was expressed and the chitinase activity of the resultant gene products was measured.
Cultured conditions were as follows: COS cells were cultured in DME media and were transfected at 90% confluency using TransIT®-LT1 transfection reagent (MIRUS). 24 hours post transfection, cell culture media was replaced with serum-free R1CD1 media. Conditioned media, containing secreted enzyme, was collected 48 hours later. Chitinase enzyme assays were performed directly from these samples, as follows.

B1: hNC: engineered human novel chitinase based on a human pseudogene, SEQ ID NO:4 (protein, listed as Homo sapiens)
chain: MAKLTLLTGLLLVLTAEIGSAYQLTCYFTNWAQNQPGLGCFKPDDIDPCLCTHLIYAFAGMQNNEITTIEWDDMTLYQAFNGLKNKNSQLKTLLAIGGWNFGTAPFTAMVSTPENHQTFINSVIKFLRQYEFDGLDFDWEYPGSRVSPPQDKHLFTVLVQEMREAFEQEAKHINKPRLMVTAAVAAGISNIQSGYEIPQLSQYPDYIHVMTYDLHGSWEGYTGENSPLYKYPTDTGSNAYLNVDYVMNYWKDNRAPAEKLLVGFPAYGHSFLLSNPSNHGIDAPTTGPGPAGPYTRQSGFWAYYEICTFLKNGATEVWEASEDVPYAYKGNEWLGYDNTKSFQIKADWLKKNNFGGAMVWAIDLDDFTGTFCNQGKFPLITTLKDALGLQSTSCKAPAQPIAPIAEANITCGVSHSGSSGGRSGRSSGGSPRGSGFCADRASGLYPDPTDKNASYSCVNGKTFTQHCQPGGVFDTFCSCCSW
Which “enzymatic (chitinase) activity” value does the source give for B1 here?
The value was “no significant enzymatic activity was detected”.
